The campaign covered roughly 410,000 compounds. About 5,000 (1.2%) were called active. The inconclusive results got no clear call from the source; some entries with a clear call stand among them for comparison. The call rests on the fitted dose curve; in most records, active means well fitted inhibition curve with a large enough effect; inconclusive means small, poorly fitted or top-dose-only effect; inactive means no such curve, though single readings can be large or run the other way. Potencies of inconclusive entries are doubtful fits and often do not repeat.
Assay: qHTS for Inhibitors of TGF-b; further: nearly all actives have a fitted effect of over 65% in size
Conditions: HepG2 CAGA-GFP TGF-b/SMAD3 reporter, GFP fluorescence, 18 h, TGF-beta stimulated, 500 pg/mL final; series mostly up to 46.1 µM; activity, negative = inhibition: at the top concentration
How it was run: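 Cell-based qHTS in HEPG2 carrying a CAGA-GFP Smad reporter; compounds added before 500 pg/mL final TGF-beta, 18 h incubation at 37 degrees C, GFP fluorescence quantified per cell by imaging cytometry.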
On the % scale 0 is the no-effect control and ±100 the full control effect; potency means the concentration at half of the fitted maximal effect; tags describe the fitted curve by direction and shape.

| Compound | Potency | activity, negative = inhibition |
| --- | --- | --- |
| CCN(CC)CCn1c2c(c(SCC(=O)Nc3cc(C)ccc3C)nc1=O)CCC2 | inconclusive: 11.2 µM [inhibitor, partial curve, poor fit] | – |
| Cc1ccc(C)c(-c2[nH]ncc2CN2CCCC(CO)(Cc3ccccc3C)C2)c1 (centres undefined) | inconclusive: 35.5 µM [inhibitor, single point] | – |
| COc1ccccc1NS(=O)(=O)c1cc(NC(=O)CNC(=O)c2cc(C)cc(C)c2)ccc1C | inconclusive: 12.6 µM [inhibitor, partial curve, poor fit] | – |
| CC(=O)c1cc2c(cc1N/C(=N/S(=O)(=O)c1ccc(C)cc1)c1ccccc1)OCO2 | inconclusive: 35.5 µM [inhibitor, single point] | – |
| CCOc1cccc2sc(N(CCN(C)C)C(=O)/C=C/c3cccs3)nc12 | inconclusive: 28.2 µM [inhibitor, single point] | – |
| CCOC(=O)c1c(C)[nH]c(C)c1C(=O)CSc1nc2ccccc2c(=O)n1-c1ccc(F)cc1 | inconclusive: 35.5 µM [inhibitor, single point] | – |
| Cc1ccc(-c2cc(-c3ccccc3)c(C#N)c(Br)n2)cc1 | inconclusive: 14.1 µM [inhibitor, single point] | – |
| CC(C)Oc1ccc(CNC(=O)c2cc3ccccn3n2)cc1 | inconclusive: 2.82 µM [inhibitor, full curve] | – |
| Cc1ccc(C)c(CSc2ccc3nnc(-c4ccccn4)n3n2)c1 | inconclusive: 14.1 µM [inhibitor, single point] | – |
| COc1ccc(NC(=O)CCc2c(C)nc3nc(CNC(=O)c4cccc(F)c4)nn3c2C)cc1OC | – | inactive: -11.5% |
| CN1CCCC(OC(=O)/C(C#N)=C/c2ccccc2)C1 (centres undefined) | – | inactive: -8.78% |
| COc1ccc(CNC(=O)CN(Cc2ccco2)C(=O)CNS(=O)(=O)c2ccccc2)cc1 | – | inactive: -6% |
| CCN1CCN(c2cc(N3CCc4ccccc4C3)c(F)cc2[N+](=O)[O-])CC1 | inconclusive: 35.5 µM [inhibitor, single point] | – |
| COc1ccc(CNC(=O)CSc2nc(-c3ccc(OC)cc3)cc(C(F)(F)F)n2)cc1 | inconclusive: 11.2 µM [inhibitor, partial curve] | – |
| Cc1cccc(C)c1NS(=O)(=O)c1ccc(NC(=O)c2ccc(Cl)c([N+](=O)[O-])c2)cc1 | inconclusive: 11.2 µM [inhibitor, partial curve, poor fit] | – |
| CCOC(=O)C1=C[C@@H](C2CCCCC2)N(S(=O)(=O)c2ccc([N+](=O)[O-])cc2)[C@H]1c1ccccc1 | inconclusive: 3.98 µM [inhibitor, partial curve, poor fit] | – |
| CC1(Oc2ccccc2-c2ccn[nH]2)CCN(Cc2ccc(OC(F)(F)F)cc2)C1 (centres undefined) | inconclusive: 10 µM [inhibitor, single point] | – |
| N#Cc1c(NC(=O)CCN2C(=O)c3ccccc3C2=O)oc(-c2ccccc2)c1-c1ccccc1 | – | inactive: 5.06% |
| O=C(CCl)Nc1cccc(-c2cnc3ccccc3n2)c1 | active: 7.08 µM | – |
| CC(C)COc1ccc(CNC(=S)NCc2ccccc2)cc1 | inconclusive: 25.1 µM [inhibitor, single point] | – |
| Cc1ccc(C)c(OCCn2c(-c3ccc(Cl)cc3)nc3ccccc3c2=O)c1C | – | inactive: -1.78% |
| CCc1nc2ccc(C(=O)NCCc3ccccn3)cn2c1N(C)Cc1ccc(N(C)C)cc1 | inconclusive: 31.6 µM [inhibitor, single point] | – |

| Compound | Potency | activity, negative = inhibition |
| --- | --- | --- |
| COc1cccc(C(O)c2nc3ccccc3n2C(C)C)c1 (centres undefined) | – | inactive: -15.4% |
| CCOc1ccc(CCNC(=O)Cn2nc(C)n3c(cc4occc43)c2=O)cc1OCC | inconclusive: 12.6 µM [inhibitor, partial curve, poor fit] | – |
| NC(=O)CC(NC(=O)c1ccccc1)c1ccc(N2CCC(Cc3ccccc3)CC2)c([N+](=O)[O-])c1 (centres undefined) | active: 6.31 µM | – |
| Cc1ccc(C(=O)N/C(=C/c2ccco2)C(=O)OCN2C(=O)c3ccccc3C2=O)cc1 | inconclusive: 0.112 µM [inhibitor, full curve, poor fit] | – |
| Cc1cc(S(=O)(=O)N2CCCC(N(C)CCc3ccccn3)C2)c(C)cc1Cl (centres undefined) | inconclusive: 25.1 µM [inhibitor, single point] | – |
| CSc1ccc(C(=O)/C=C/c2ccc(N)cc2)cc1 | inconclusive: 35.5 µM [inhibitor, single point] | – |
| COc1ccc2ccccc2c1/C=N/NC(=O)c1nnn(-c2nonc2N)c1C(C)C | inconclusive: 35.5 µM [inhibitor, single point] | – |
| Cc1cccc(OCc2ccc(C(=O)Nc3cc(C)on3)o2)c1 | inconclusive: 2.82 µM [inhibitor, single point] | – |
| NS(=O)(=O)c1ccc(CNC(=O)c2cc(S(=O)(=O)N3CCOCC3)c(Cl)cc2Cl)cc1 | inconclusive: 35.5 µM [inhibitor, partial curve, poor fit] | – |
| Cc1cccc(C2=NN(c3ccccc3)[C@@H](C(=O)N3CCOC3=O)[C@@H]2c2ccc(Cl)cc2)c1 | inconclusive: 20 µM [inhibitor, single point] | – |
| Cc1cccc(Cn2c(C(C)(C)C)cc3cccnc32)c1 | inconclusive: 12.6 µM [inhibitor, partial curve, poor fit] | – |
| COc1ccc(OC)c(CN2CCCCCC2)c1 | – | inactive: -1.19% |
| Cc1nc(SC(C)C(=O)Nc2ccccc2C)cc(-c2ccccc2)n1 (centres undefined) | inconclusive: 20 µM [inhibitor, single point] | – |
| CCCOc1ccc(CCC(=O)N/N=C/c2ccc([N+](=O)[O-])o2)cc1 | inconclusive: 22.4 µM [inhibitor, single point] | – |
| COc1ccc(N(C)S(=O)(=O)c2cccc(C(=O)NC3CCCCCC3)c2)cc1 | – | inactive: -1.97% |
| COc1ccc(-c2csc(Nc3ccc(C)cn3)n2)cc1 | – | inactive: 3.31% |
| COc1ccccc1/C=C/c1nc2ccccc2n1C(C)C | inconclusive: 11.2 µM [inhibitor, partial curve] | – |
| CN(c1cccc(NC(=O)c2ccc(N(C)S(=O)(=O)c3ccccc3)cc2)c1)S(C)(=O)=O | – | inactive: -25.1% |
| CC(C)Oc1ccc(CCc2n[nH]c(=S)n2-c2ccccc2)cc1 | – | inactive: -5.78% |
| CCOC(=O)N1CCC(N2CCN(S(=O)(=O)CC)CC2)CC1 | inconclusive: 17.8 µM [inhibitor, single point] | – |
| COc1ccc(-c2oc(=O)c3cc(OC)c(OC)cc3c2/C=C/c2ccc(OC(C)=O)cc2)cc1 | inconclusive: 35.5 µM [inhibitor, single point] | – |
| O=C1/C(=C/C=C/c2ccco2)SC(=S)N1NS(=O)(=O)c1ccccc1 | inconclusive: 35.5 µM [inhibitor, partial curve, poor fit] | – |

| Compound | Potency | activity, negative = inhibition |
| --- | --- | --- |
| CC(C)N1CCN(c2ccc(OC[C@H]3CO[C@](Cn4cncn4)(c4ccc(Cl)cc4Cl)O3)cc2)CC1 | inconclusive: 35.5 µM [inhibitor, single point] | – |
| Fc1ccc(N2CCN(C3CCC(c4ccccc4)CC3)CC2)cc1 (centres undefined) | inconclusive: 35.5 µM [inhibitor, single point] | – |
| COc1ccc(S(=O)(=O)N2CCN(c3cc(-c4ccccc4)nc4ncnn34)CC2)cc1 | inconclusive: 20 µM [inhibitor, partial curve] | – |
| COCC(=O)Nc1cc(C)cn(Cc2c(F)cccc2Cl)c1=O | – | inactive: 14.3% |
| CCOC(=O)N1CCN(c2c(N3CCc4ccccc4C3)c(=O)c2=O)CC1 | inconclusive: 2.82 µM [inhibitor, single point] | – |
| Sc1oc(-c2ccccc2)cc1C=Nc1ccccc1 | inconclusive: 5.01 µM [inhibitor, full curve, poor fit] | – |
| Cn1c(=O)[nH]c(=O)c2c1nc(N1CCCCCC1)n2CCOc1ccccc1 | – | inactive: -3.15% |
| COC(=O)CCC(=O)OC1(C)C(=O)C=C2C=C3CCCN3C=C2C1=O (centres undefined) | inconclusive: 5.01 µM [inhibitor, full curve, poor fit] | – |
| O=c1oc(-c2cccs2)nc2scc(-c3cccs3)c12 | inconclusive: 3.98 µM [inhibitor, single point] | – |
| O=C(NCCc1ccccc1)C1CC(=O)N(CCc2ccccc2)C1 (centres undefined) | – | inactive: 0.484% |
| O=S(=O)(NOCc1ccc(Cl)cc1)c1ccc(Cl)cc1 | inconclusive: 28.2 µM [inhibitor, single point] | – |
| Cc1ccc(/C=C/c2onc(C)c2S(=O)(=O)N2CCC(C(=O)N3CCC(N(C)C(C)C)CC3)CC2)cc1 | inconclusive: 7.08 µM [inhibitor, partial curve, poor fit] | – |
| CCC(=O)Nc1ccccc1C(=O)OCC(=O)c1ccccc1 | inconclusive: 10 µM [inhibitor, partial curve, poor fit] | – |
| COc1ccc(C(=O)NC(=S)Nc2ccc(CN3CCCCC3)cc2)cc1Cl | inconclusive: 6.31 µM [inhibitor, single point] | – |
| Cc1cc(C)nc(N/N=C/c2cc(C)n(CC(F)(F)F)c2C)n1 | inconclusive: 7.94 µM [inhibitor, partial curve] | – |
| O=c1c2cc3c(cc2n(Cc2ccc(Cl)cc2)c(=O)n1Cc1nc(-c2ccccc2)no1)OCO3 | – | inactive: -1.45% |
| S=C(NNc1cccc(Cl)c1)NC1CCCCC1 | inconclusive: 8.91 µM [inhibitor, partial curve] | – |
| Cc1ccc(-n2c(Cc3ccccc3)nnc2SCc2nc(-c3cccs3)no2)cc1 | inconclusive: 35.5 µM [inhibitor, single point] | – |
| O=C1C(=Cc2cccc(Cl)c2)CCc2ccccc21 | inconclusive: 17.8 µM [inhibitor, single point] | – |
| Cc1ccc(CN2CCSc3ccc(C(=O)N4CCN(c5ccccc5)CC4)cc32)cc1 | – | inactive: -2.62% |

Reference: PubChem BioAssay AID588855 (National Center for Advancing Translational Sciences (NCATS), 2011)
